Measured values as given in article PMC4336329 (PLoS ONE, 2015).
Out of some 310,000 compounds screened, about 14,000 (4.5%) showed an effect of 50% or more. Effects have a minus sign here. The list shows a part of the results.

Molecular target: human ether-à-go-go-related gene (hERG) potassium channel (human, UniProt Q12809)
Assay: primary screen, population patch clamp on CHO cells stably expressing hERG
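Note: peak tail current of the secondary pulse compared with the same well before compound.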

Chain of human ether-à-go-go-related gene (hERG) potassium channel (Q12809 whole entry, looked up): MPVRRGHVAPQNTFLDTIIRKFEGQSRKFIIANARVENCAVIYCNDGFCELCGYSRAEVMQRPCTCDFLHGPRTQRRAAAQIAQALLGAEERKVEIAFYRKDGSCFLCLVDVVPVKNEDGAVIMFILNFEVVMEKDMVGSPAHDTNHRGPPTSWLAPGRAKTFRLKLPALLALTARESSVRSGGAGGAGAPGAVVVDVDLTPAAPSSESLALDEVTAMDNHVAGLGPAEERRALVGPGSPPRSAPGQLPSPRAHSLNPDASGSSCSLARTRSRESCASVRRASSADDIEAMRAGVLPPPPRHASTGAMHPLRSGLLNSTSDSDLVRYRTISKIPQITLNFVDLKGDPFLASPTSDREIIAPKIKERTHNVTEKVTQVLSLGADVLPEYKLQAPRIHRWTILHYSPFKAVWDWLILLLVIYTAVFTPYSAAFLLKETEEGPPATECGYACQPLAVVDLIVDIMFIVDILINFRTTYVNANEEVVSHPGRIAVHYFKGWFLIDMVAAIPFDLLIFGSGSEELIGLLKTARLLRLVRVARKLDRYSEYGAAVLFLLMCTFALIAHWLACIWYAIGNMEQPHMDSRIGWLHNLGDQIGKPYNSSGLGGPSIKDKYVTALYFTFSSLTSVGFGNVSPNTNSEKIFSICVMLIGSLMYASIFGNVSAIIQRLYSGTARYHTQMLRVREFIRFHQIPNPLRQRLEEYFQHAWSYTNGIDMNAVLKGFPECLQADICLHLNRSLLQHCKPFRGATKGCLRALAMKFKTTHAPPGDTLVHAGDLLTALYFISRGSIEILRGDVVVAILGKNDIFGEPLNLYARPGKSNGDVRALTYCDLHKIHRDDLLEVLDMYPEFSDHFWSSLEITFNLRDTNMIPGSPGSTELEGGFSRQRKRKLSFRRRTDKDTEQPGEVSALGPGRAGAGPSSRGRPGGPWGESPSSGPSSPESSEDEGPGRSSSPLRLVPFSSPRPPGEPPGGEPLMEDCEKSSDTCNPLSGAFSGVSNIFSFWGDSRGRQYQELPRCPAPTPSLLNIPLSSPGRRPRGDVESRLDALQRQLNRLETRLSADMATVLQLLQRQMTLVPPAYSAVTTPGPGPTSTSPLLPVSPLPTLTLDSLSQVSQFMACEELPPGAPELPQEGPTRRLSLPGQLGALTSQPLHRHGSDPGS

Row | SMILES | hERG current change (%, negative = inhibition) at 10uM [%]
1 | CC(=O)N1c2ccc(S(=O)(=O)NCCC(=O)NC3CCC(C)CC3)cc2CC1C (centres unmarked) | 9.25
2 | CCN(CC)c1ccc(-c2nc3cnccn3c2NC2CCCC2)cc1 | 7.02
3 | Cc1c(O)ccc2cc(S(=O)(=O)c3ccccc3)c(=O)oc12 | 13.8
4 | Cc1cccc(N2CCN(S(=O)(=O)c3ccc(S(=O)(=O)N4CCCC4)cc3)CC2)c1C | 12.6
5 | COC(=O)NNC(=O)c1ccc(C)c(Br)c1 | 1.45
6 | Brc1ccc(C2=Nc3ccccc3C(c3ccncc3)=NN2)cc1 | 42.5
7 | CCOC(=O)c1nnn(-c2nonc2N)c1COc1c(C=O)cccc1OC | -6.2
8 | CC(C)(C)OC(=O)CN1c2cccc3cccc(c23)S1(=O)=O | 0.117
9 | CC(C)(C(=O)c1ccccc1)/[N+]([O-])=C/c1ccccc1F | 15.4
10 | O=C(NCc1cccnc1)C(=O)NC1CCCCC1 | -9.15
11 | Cc1cc(C(=O)Nc2cccc([N+](=O)[O-])c2)c(C)o1 | -11.8
12 | CN1C[C@@H]2C(c3ccc(Cl)nc3)C3(c4ccccc4)CC2(C3)[C@H]1c1ccccc1 (some centres unmarked) | -43.1
13 | COc1ccccc1CN(CC(=O)NCc1ccc2c(c1)OCO2)C(=O)c1ccc2c(c1)OCCO2 | -28.4
14 | c1ccc(Cc2ccc(OCCn3cncn3)cc2)cc1 | -10.7
15 | Cc1nn(C)c(C(=O)N/N=C/c2cccnc2)c1Br | 16.8
16 | C=CCNc1ncnc2c1cnn2-c1cccc(C)c1 | -11.5
17 | CCc1ccc2nc(NC(=O)c3cc(C)on3)sc2c1 | 0.243
18 | CC1(N2CCOCC2)C(=O)c2ccccc2C1=O.Cl | -8.16
19 | COc1ccc(S(=O)(=O)N2CC(C(=O)O)Oc3ccccc32)cc1 (centres unmarked) | 19.5
20 | CC(C)C1(C)N=C(c2nc3ccccc3cc2C(=O)O)NC1=O (centres unmarked) | -6.81
21 | Cc1cccc(OCC(=O)Nc2cccc(-c3nnc(-c4ccccc4)o3)c2)c1C | -4.37
22 | COC(=O)C1=C(c2ccc(F)cc2OCc2ccccc2)C[C@@H]2CC[C@H]1N2C(=O)NCc1ccco1 | -8.86
23 | CCCCN(C(=O)c1ccc(S(=O)(=O)N2CCCC2)cc1)C1CCS(=O)(=O)C1 (centres unmarked) | -0.0452

Row | SMILES | hERG current change (%, negative = inhibition) at 10uM [%]
24 | Cc1cc(NC(=O)CCC(=O)N(c2cccnc2)C(C(=O)NC2CCCC2)c2ccccc2F)no1 (centres unmarked) | 1.42
25 | O=C(Nc1cccc(F)c1)C1CCCN(S(=O)(=O)c2ccc(-n3cnnn3)cc2)C1 (centres unmarked) | -20.2
26 | O=C(CSc1nnc(-c2ccco2)n1-c1ccccc1)NCc1ccco1 | -67.8
27 | CCN(CC)C(=S)NC(=O)c1ccc(F)cc1 | 23.3
28 | CCOC(=O)c1ccc(NC(=O)CCn2nnc3ccccc32)cc1 | -3.08
29 | CC(C)(C)NC(=O)COC(=O)c1ccc2c(c1)C(=O)N(Cc1ccco1)C2=O | 13.5
30 | Cc1ccc(C(=O)N/C(=C\c2cccc([N+](=O)[O-])c2)C(=O)NCc2ccncc2)cc1 | -73.3
31 | CN1CCN(c2nc3c(c(=O)[nH]c(=O)n3C)n2CCCSc2ncccn2)CC1 | -18.7
32 | Nc1ccccc1OCP(=O)(c1ccccc1)c1ccccc1 | 0.626
33 | CCOC(=O)C1CCN(c2c(NCc3ccc(C(=O)Nc4ccc(C)cc4)cc3)c(=O)c2=O)CC1 | 1.42
34 | COCCNC(=O)C1CCC(CNS(=O)(=O)c2c(C)cc(C)cc2C)CC1 (centres unmarked) | 7.72
35 | CC1(NC(=O)Cc2ccc(Cl)c(Cl)c2)CCS(=O)(=O)C1 (centres unmarked) | 3.67
36 | Cc1cccc(CN2CCC(CNC(=O)Nc3ccc(F)c(Cl)c3)CC2)c1 | -74.9
37 | COc1ccc(CNC(=O)CS(=O)Cc2nc(-c3ccccc3C)oc2C)cc1 (centres unmarked) | -31.7
38 | Cc1ccc(S(=O)(=O)N(C)c2ccc(OC(C)C(=O)N3CCCC3)cc2)cc1C (centres unmarked) | -37.6
39 | O=S(=O)(c1cccc2ccccc12)N1CCSC1 | -11.9
40 | O=C1CCCC/C1=C\Nc1ccc(Cl)cn1 | -24.9
41 | Cc1ccc2c(c1)[nH]c1c(N3CCN(Cc4ccccc4)CC3)ncnc12 | -24.5
42 | O=C(NCc1cccc(Cl)c1)C1CCC(=O)N(CC2CCCCC2)C1 (centres unmarked) | -17.2
43 | Nc1nc2c(s1)C(=O)CCC2 | 11.5
44 | O=C(NCc1ccco1)c1ccc(CS(=O)Cc2cccc(Cl)c2)o1 (centres unmarked) | -6.01
45 | Cc1ccc2c(c1)C(=C(C#N)C#N)C(=O)N2CCN1CCOCC1 | -38.6
46 | O=C(CN1C(=O)NC2(CCCCC2)C1=O)Nc1ccc(N2CCOCC2)cc1 | 24.9

Row | SMILES | hERG current change (%, negative = inhibition) at 10uM [%]
47 | Cc1ccc(NC(=O)COC(=O)CCc2ccc(S(=O)(=O)N3CCOCC3)cc2)cc1F | -11
48 | COc1ccc(CN(C)C(=O)[C@H](Cc2ccccc2)NC(=O)c2ccco2)c(OC)c1 | -21.8
49 | CN1CCc2c(OCC(=O)NC3CCCCC3)cccc2C1=O | 13.6
50 | Fc1ccc(F)c(CN2CCN(c3ncccn3)CC2)c1 | 11.6
51 | Cc1ccc(NC(=O)CN2C(=O)COc3ccc(S(=O)(=O)N4CCCC4)cc32)c(C)c1 | 5.83
52 | CN1C(=O)N(CC(=O)N2CCN(S(=O)(=O)c3ccc(Cl)s3)CC2)C(=O)C12CCCCC2 | -16.1
53 | CSc1cc(C)c(OCC(=O)Nc2ccc(NC(C)=O)cc2)c(C)c1 | -4.69
54 | NC(=O)c1cc2nc(-c3ccco3)cc(C(F)(F)F)n2n1 | 4.51
55 | CCn1c(=O)cc(OCC(=O)N(C)C2CCCCC2)c2ccccc21 | -3.72
56 | CCC(=O)c1ccc2ncccc2c1 | 12.2
57 | CC(C)(C)c1ccccc1NC(=O)c1cccnc1 | 4.56
58 | O=C(Nc1ccc(Oc2cccc(C(F)(F)F)c2)nc1)c1ccccc1 | 13.6
59 | Cc1ccc(NC(=O)CN(C)C(=O)c2cc(-c3ccco3)nc3ccccc23)cc1 | -21.8
60 | CC1CCN(c2nc3nonc3nc2Nc2ccc(F)cc2)CC1 | -35
61 | COc1ccc(CC(=O)NC(C)CCc2ccccc2)cc1 (centres unmarked) | 5.43
62 | CC1CCCC(NC(=O)c2ccc3c(c2)NC(=O)CS3)C1C (centres unmarked) | 7.04
63 | O=S(=O)(NCc1ccccc1)c1ccc(S(=O)(=O)N2CCCCC2)cc1 | -3.11
64 | O=C(O)/C=C\C(=O)N1CCc2ccccc21 | 27.9
65 | O=C(/C=C/c1cc(Br)ccc1F)Nc1cccnc1 | 14.6
66 | CC(=O)c1c(N)n(C)c(=O)n(C)c1=O | -4.24
67 | Cc1cccc(OP(=O)(Nc2ccc(F)cc2)Oc2cccc(C)c2)c1 | 4.93
68 | CCc1cccc(CC)c1NC(=S)Nc1ccc2cn[nH]c2c1 | -21.2
69 | CCOC(=O)Nc1ccc2c(c1)N(C(=O)N(C)C)c1ccccc1CC2 | -6.99

Row | SMILES | hERG current change (%, negative = inhibition) at 10uM [%]
70 | CCOc1ccccc1N1CCN(C(=O)c2c(Cl)cnn2C)CC1 | 5.83
71 | COc1ccc(-n2cc(-c3ccccc3)[n+]3c2CCCCC3)cc1.[Br-] | -19.3
72 | Cc1ccc2nc(S(=O)(=O)O)[nH]c2c1 | -9.19
73 | COc1ccccc1NC(=O)c1cccnc1 | 5.89
74 | NC(=O)NC(=O)COC(=O)c1ccc2c(c1)C(=O)N(Cc1ccccc1)C2=O | 6.55
75 | O=C(Nc1ccccc1)c1ccc(F)c(S(=O)(=O)N2CCOCC2)c1 | 0.584
76 | O=C(O)c1ccc(N=c2oc3cc(O)ccc3cc2C(=O)NCc2ccccc2)cc1 | 4.83
77 | N#Cc1ccccc1OCCn1cncn1 | 20.2
78 | Cc1c(C)c2ccc(OCC(=O)Nc3ccc(S(N)(=O)=O)cc3)c(C)c2oc1=O | 13.8
79 | O=C(CN1CCOCC1)Nc1scc(-c2ccccc2)c1C(=O)N1CCOCC1 | -34.9
80 | CN(C)c1ccc(C2CC(=O)OC3=C2C(=O)CC(C)(C)C3)cc1 (centres unmarked) | 9.71
81 | CN1CCN(/N=C/c2nc(-c3cccc([N+](=O)[O-])c3)n3ccccc23)CC1 | -29.4
82 | N#Cc1c(-c2ccco2)nc(SCc2ccc(F)cc2)[nH]c1=O | -5.28
83 | COc1cc(OC)cc(C(=O)N2CCN(c3ccccc3F)CC2)c1 | -11.6
84 | O=C(Cn1ccc(C(F)(F)F)n1)NNC(=O)c1cccnc1 | -0.995
85 | CC(C)(C)C(=O)NC(=S)NCCc1ccccc1 | -3.23
86 | COc1ccccc1CCCNC(=O)C1CCC(=O)N(CCN2CCOCC2)C1 (centres unmarked) | 0.311
87 | COC(=O)c1cc(CNC(=O)c2cccc(Cl)c2Cl)ccc1OC | -37.6
88 | O=c1c2ccccc2nc(/C=C/c2cccnc2)n1CCc1ccccc1 | -39.2
89 | O=C(CSc1nnc(-c2ccncc2)n1CC1CCCO1)Nc1ccccc1Cl (centres unmarked) | -9.08
